Laboratory results from patent publication US20170119790A1, “Agents, Uses and Methods” (CYTOGUIDE A/S, priority 2009, published 2017).

Legend:
[1] = molecular target: T1, CD14 positive monocytes (CD163) (Homo sapiens, UniProt Q86VB7); assay: Flow cytometric binding of KN2/NRY to human monocytes; format: cell-based; settings: mononuclear cells isolated from buffycoat
T1 construct: Freshly drawn peripheral whole blood samples or PBMC; endogenous in cells; host or cells: human peripheral blood monocytes, blood dendritic cells, monocyte-derived macrophages (healthy donors, buffy coats)
Description: Outdated buffy coats were obtained from the blood bank at Skejby University Hospital. MNC were isolated with Accuspin System Histopaque®—1077 (Sigma-Aldrich Denmark A/S, Broendby, Denmark) according to the manufacturer's instructions and cultured in RMPI 1640, 10% fetal calf serum (FCS), penicillin/streptomycin (pen/strep) in Tissue culture flasks at 37° C. and 5% CO2. MNC were detached from the flasks by flushing.
The cell suspensions were washed in PBS pH 7.4 (0.1% NaN3) and the cell density adjusted to 3-5×10^6/ml. The cells were incubated at 0.3-0.5×10^6/ml with primary mAb (0.1-0.5 μg) in 100 μl PBS pH 7.4 (0.1% NaN3 and 2% FBS) for one hour at 4° C. Subsequently, the cells were washed in PBS (0.1% NaN3) and incubated with secondary Ab (anti-mouse IgG-FITC or anti-human IgG-FITC (both AbD-Serotec Dusseldorf, Germany)) for 30 min at 4° C. The stained cells were washed twice in PBS pH 7.4 (0.1% NaN3 and 2% FBS) by centrifugation at 1200 rpm for 5 min, 4° C. before analysis on a FACSCalibur (BD Biosciences, New Jersey, USA). The data were further analyzed using the FlowJo7 software package (Tri Star, Origon, USA).

CD163 [2] = molecular target: T2, CD163 (Homo sapiens, UniProt Q86VB7); assay: ELISA antibody reactivity comparison of humanised variants; format: binding; settings: supernatant of transiently transfected CHO-S cells
Description: A nunc maxisorp plate was coated with the following (50 μl/well) over night at 4° C.: 4 μg/ml goat anti-human kappa chain antibody (AbD Serotec, Oxford, UK) and ˜4 μg/ml human CD163 (purified as described in 8). Buffer was carbonate buffer, pH 9.0. Each measurement was made in duplicate.
2) The plate was blocked with PBS containing 3% BSA for 1 h.
4) After blocking, the primary antibody was added (100 μl per well).
Undiluted supernatant from transfected cells added to the wells (100 μl/well)
2 fold dilution series were made on all samples and standards. Dilution in PBS containing 1% BSA.
6) Addition of secondary antibody (100 μl/well) • For anti-kappa/anti-gamma ELISA • 100 μl/well of goat anti human IgG gamma chain specific HRP 1:6000 in PBS containing 1% BSA. • For CD163 ELISA • 100 μl/well of goat anti human IgG (H&L) HRP 1:6000 in PBS containing 1% BSA. • For Mac2-158 goat anti-mouse HRP 1:2000 in PBS containing 1% BSA is added to the wells
8) The ELISA was developed by adding 75 μl of TMB substrate to each well. Incubation was performed for 3 min.
10) The plate was read in an ELISA reader at 450 nm.

CD163 [3] = molecular target: T2, CD163; assay: Surface plasmon resonance (Biacore) analysis of mAb binding to immobilized CD163; settings: KN2/NRY compared with Mac2-158, 5 μg/ml, FIG. 19
Description: SPR analysis of the binding of mAbs to CD163 was carried out on a Biacore 2000 instrument (Biacore, Uppsala, Sweden). The Biacore sensor chips (type CM5) were activated with a 1:1 mixture of 0.2 M N-ethyl-N′-(3-dimethylaminopropyl) carbodiimide and 0.05 M N-hydroxysuccimide in water. Purified recombinant CD163 were immobilized in 10 mM sodium acetate, pH 4.0, and the remaining binding sites were blocked with 1 M ethanolamine, pH 8.5. The SPR signal generated from immobilized recombinant CD163 proteins corresponded to 40-70 fmol of protein/mm^2. Sensorgrams were generated using mAb concentrations ranging from 5-100 nM. The flow cells were regenerated with 1.6 M glycine-HCl, pH 3. The running buffer used for the experiment was either CaHBS 10 mM Hepes, 150 mM NaCl, 3.0 mM CaCl2, 1.0 mM EGTA, and 0.005% Tween 20, […], and 0.005% Tween 20, pH 7.4, mAb samples were dissolved in the same buffer as the running buffer used. All binding data were analyzed using the Biamolecular Interaction Analysis evaluation program version 3.1.
SPR analysis of the binding of mAbs to CD163 was carried out on a Biacore 2000 instrument (Biacore, Uppsala, Sweden). […] All binding data were analyzed using the Biamolecular Interaction Analysis evaluation program version 3.1.

human CD163 wt = molecular target: T3, human CD163 wt (Homo sapiens, UniProt Q86VB7); assay: Western blotting of human CD163 and knock out mutants; format: binding
T3 construct: a pcDNA5-FRT-humanCD163 plasmid harboring the full length human CD163 cDNA; expressed in transfected cells; host or cells: HEK 293, transient
Description: (§1) Each cell pellet was added 1 ml lysis buffer (10 mM Tris pH 8, 140 mM NaCl, 15 mM MgSO4, 1% Triton X-100) and incubated for 15 min at 4 °C with rotation. After centrifugation for 30 min at 6000 rpm the supernatants were sterile filtered.
90 μl of each of the supernatants were added 30 μl of 4×LDS sample buffer. 3×20 μl samples of each supernatant and 8 μl SeeBlue plus2 prestained marker were loaded on NuPage 4-12% Bis-Tris-Gels (Invitrogen, Taastrup, Denmark) and the SDS-PAGEs were run with MOPS running buffer according to instructions of the manufacturer (200 V constant for 50 min). Blotting to PVDF membranes (Invitrogen, Taastrup, Denmark) was done on an iBLOT device according to instructions of the manufacturer. After blotting the membranes were washed briefly in 1×PBS 0.1% Tween and blocked for 30 min in 1×PBS 2% Tween at room temperature with shaking. After blocking the membranes were washed 3×5 min in 1×PBS 0.1% Tween and incubated 1 hour with: (1) 10 ml 1 μg/ml polyclonal rabbit anti-human CD163; (2) 10 ml 1 μg/ml Mac2-158; (3) 10 ml 1:500 KN2/NRY-HRP all diluted in 1×PBS 0.1% Tween. The membranes were washed with 3×5 min 1×PBS 0.1% Tween again and incubated with: (1) 10 ml Goat anti-rabbit-HRP 1:1000 (AbD Serotec, Oxford, UK); or (2) 10 ml Goat anti-mouse-HRP 1:1000 (Dako, Glostrup, Denmark) for 1 hour. […]

human CD163 R60D = molecular target: T4, human CD163 R60D (Homo sapiens, UniProt Q86VB7, R112D); assay: as above; format: binding
T4 construct: a pcDNA5-FRT-humanCD163 plasmid harboring the full length human CD163 cDNA; expressed in transfected cells; host or cells: HEK 293, transient
Excerpt: (§2) For the mutant generation the Site-directed Ligation Independent Mutagenesis (SLIM) method was used (1). Primers are listed in the primer table. The template for the generation of the two first mutants was a pcDNA5-FRT-humanCD163 plasmid harboring the full length human CD163 cDNA. The primers LKI FT, RT, F, and R were used to generate the mutant plasmid pcDNA5-FRT-humanCD163 (VKVQEE-->LKIHEK). The primers R60D FT, RT, F, and R were used to generate the mutant plasmid pcDNA5-FRT-humanCD163 (R60D). Generation of a double mutant was done by performing a SLIM reaction on pcDNA5-FRT-humanCD163 (VKVQEE-->LKIHEK) with the primers R60D FT, RT, F, and R.
as §1
(§3) 90 μl of each of the supernatants were added 30 μl of 4×LDS sample buffer. 3×20 μl samples of each supernatant and 8 μl SeeBlue plus2 prestained marker were loaded on NuPage 4-12% Bis-Tris-Gels (Invitrogen, Taastrup, Denmark) and the SDS-PAGEs were run with MOPS running buffer according to instructions of the manufacturer (200 V constant for 50 min). Blotting to PVDF membranes (Invitrogen, Taastrup, Denmark) was done on an iBLOT device according to instructions of the manufacturer. […]

[4] = molecular target: T5, human CD163 LKIHEK containing mutants (VKVQEE-->LKIHEK and double mutant) (Homo sapiens, UniProt Q86VB7, E71K/Q69H/V66L/V68I); assay: as above; format: binding
T5 construct: a pcDNA5-FRT-humanCD163 plasmid harboring the full length human CD163 cDNA; expressed in transfected cells; host or cells: HEK 293, transient
Excerpt: as §2, §1, §3

T4 sequence (Q86VB7 42-1156 R112D): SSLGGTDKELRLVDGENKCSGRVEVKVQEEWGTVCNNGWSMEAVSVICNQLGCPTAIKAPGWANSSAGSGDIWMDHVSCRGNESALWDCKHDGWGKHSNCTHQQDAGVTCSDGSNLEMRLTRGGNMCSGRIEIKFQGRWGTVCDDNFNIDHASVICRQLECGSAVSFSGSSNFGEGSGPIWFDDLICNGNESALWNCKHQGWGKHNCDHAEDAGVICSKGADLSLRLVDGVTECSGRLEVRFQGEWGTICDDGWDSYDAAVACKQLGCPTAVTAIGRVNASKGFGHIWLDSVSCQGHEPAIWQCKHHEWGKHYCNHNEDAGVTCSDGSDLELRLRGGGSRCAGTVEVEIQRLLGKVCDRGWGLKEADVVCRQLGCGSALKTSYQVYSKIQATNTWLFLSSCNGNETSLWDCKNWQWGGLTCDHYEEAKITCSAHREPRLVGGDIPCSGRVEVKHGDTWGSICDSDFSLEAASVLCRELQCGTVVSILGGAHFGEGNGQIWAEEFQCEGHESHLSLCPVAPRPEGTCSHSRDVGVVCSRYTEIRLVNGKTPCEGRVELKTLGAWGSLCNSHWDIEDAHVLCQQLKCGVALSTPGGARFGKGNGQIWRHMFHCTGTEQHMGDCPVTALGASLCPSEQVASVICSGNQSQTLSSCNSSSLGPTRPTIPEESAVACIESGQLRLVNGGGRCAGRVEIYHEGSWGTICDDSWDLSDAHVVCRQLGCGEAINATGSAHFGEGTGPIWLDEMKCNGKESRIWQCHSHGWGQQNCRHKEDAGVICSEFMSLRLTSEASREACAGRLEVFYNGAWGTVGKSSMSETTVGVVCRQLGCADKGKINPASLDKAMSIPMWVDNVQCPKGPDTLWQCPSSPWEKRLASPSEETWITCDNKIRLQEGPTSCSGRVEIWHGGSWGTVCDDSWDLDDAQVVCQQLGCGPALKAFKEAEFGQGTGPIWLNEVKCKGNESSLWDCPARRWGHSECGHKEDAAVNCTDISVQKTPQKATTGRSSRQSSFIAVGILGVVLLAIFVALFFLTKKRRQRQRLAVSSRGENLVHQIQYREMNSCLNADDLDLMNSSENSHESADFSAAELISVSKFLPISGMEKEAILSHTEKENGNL
T3 sequence (Q86VB7 42-1156): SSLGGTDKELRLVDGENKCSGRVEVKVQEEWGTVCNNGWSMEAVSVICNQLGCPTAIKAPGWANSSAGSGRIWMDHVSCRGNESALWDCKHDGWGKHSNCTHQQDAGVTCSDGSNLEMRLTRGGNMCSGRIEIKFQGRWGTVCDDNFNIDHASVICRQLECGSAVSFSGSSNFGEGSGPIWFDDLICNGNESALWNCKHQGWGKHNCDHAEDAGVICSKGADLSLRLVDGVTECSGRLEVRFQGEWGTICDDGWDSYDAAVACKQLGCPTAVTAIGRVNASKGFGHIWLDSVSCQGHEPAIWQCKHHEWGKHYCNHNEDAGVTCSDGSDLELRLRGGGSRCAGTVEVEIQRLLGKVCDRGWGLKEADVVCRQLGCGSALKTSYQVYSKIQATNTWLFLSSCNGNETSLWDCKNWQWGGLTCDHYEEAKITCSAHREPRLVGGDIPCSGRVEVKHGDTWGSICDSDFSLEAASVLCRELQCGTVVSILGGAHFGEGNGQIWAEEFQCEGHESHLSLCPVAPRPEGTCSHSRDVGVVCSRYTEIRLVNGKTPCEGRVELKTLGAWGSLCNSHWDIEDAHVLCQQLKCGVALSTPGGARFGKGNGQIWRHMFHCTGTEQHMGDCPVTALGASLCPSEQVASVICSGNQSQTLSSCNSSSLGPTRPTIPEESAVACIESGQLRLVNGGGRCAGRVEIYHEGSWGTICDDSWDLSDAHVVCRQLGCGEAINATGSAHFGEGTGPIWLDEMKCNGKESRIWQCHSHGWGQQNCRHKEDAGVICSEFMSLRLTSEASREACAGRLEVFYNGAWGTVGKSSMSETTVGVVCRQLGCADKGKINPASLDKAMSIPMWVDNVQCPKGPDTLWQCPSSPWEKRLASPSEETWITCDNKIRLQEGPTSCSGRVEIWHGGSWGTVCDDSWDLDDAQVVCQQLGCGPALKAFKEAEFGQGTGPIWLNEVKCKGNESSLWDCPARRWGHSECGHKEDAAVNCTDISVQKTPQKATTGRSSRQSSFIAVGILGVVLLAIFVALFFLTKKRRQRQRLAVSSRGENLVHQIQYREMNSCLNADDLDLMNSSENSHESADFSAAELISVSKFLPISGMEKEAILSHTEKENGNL
T2 sequence (Q86VB7 42-1156): as above
T1 sequence (Q86VB7 42-1156): as above

peripheral monocytes showing co-binding of KN2/NRY and Mac2-158 [1]: ~70% | reactivity towards CD163 in ELISA (CD163 [2]): comparable reactivity | affinity for human CD163 immobilized on a Biacore chip (CD163 [3]): Virtually similar affinities
B1: KN2/NRY: humanized IgG4 anti-CD163 antibody, heavy chain KN2 paired with light chain NRY (antibody)
heavy: QVQLQESGPGLVKPSETLSLTCTVSGYSITSDYAWNWIRQFPGNKLEWMGYITYSGSTYYNPSLKSRVTISVDTSKNQFSLKLSSVTAADTATYYCVSGTYYFDYWGQGTTLTVSSASTKGPSVFPLAPCSRSTSESTAALGCLVKDYFPEPVTVSWNSGALTSGVHTFPAVLQSSGLYSLSSVVTVPSSSLGTKTYTCNVDHKPSNTKVDKRV[left out - human IgG4 Fc]
light: DIVMTQSPSSLSASVGDRVTITCRASQSVSSDVAWFQQKPGKSPKPLIYYASNRYSGVPSRFSGSGSGTDFTLTISSLQAEDFAVYFCGQDYTSPRTFGGGTKLEIKRTVAAPSVFIFPPSDEQLKSGTASVVCLLNNFYPREAKVQWKVDNALQSGNSQESVTEQDSKDSTYSLSSTLTLSKADYEKHKVYACEVTHQGLSSPVTKSFNRGEC

reactivity towards CD163 in ELISA (CD163 [2]): comparable reactivity
B2: DQ2: humanised heavy chain variant Q1D paired with light chain NRY (antibody)
heavy: B1 heavy with Q1D, S19N, S57I, Y59N
light: B1 light

reactivity towards CD163 in ELISA (CD163 [2]): comparable reactivity
B3: KN1IN5: humanised heavy chain variant (additional S56I, Y58N) paired with light chain NRY (antibody)
heavy: B1 heavy with S19N, S57I, Y59N
light: B1 light

reactivity towards CD163 in ELISA (CD163 [2]): comparable reactivity
B4: VR1: humanised heavy chain variant (V71R intended, turned out V71E) paired with light chain NRY (antibody)
heavy: B1 heavy with S19N, S57I, Y59N, V72E
light: B1 light

binding in western blot (human CD163 wt): binding | binding in western blot (human CD163 R60D): not be detected
B5: KN2/NRY-HRP: KN2/NRY conjugated to HRP by periodate oxidation (conjugate)
heavy: B1 heavy
light: B1 light
binding in western blot [4]: showed only binding to the human CD163 wt

Where a chain is given by its changes, count along the chain named. Names and notes keep the numbering of the source. One block for each molecule: values may come before it.
